Assay results reported in article PMC4336329 (PLoS ONE, 2015).
The campaign covered roughly 310,000 compounds. About 14,000 (4.5%) showed an effect of 50% or more. The effect is printed as a negative number. The list shows a part of the results.

Target: human ether-à-go-go-related gene (hERG) potassium channel (human, UniProt Q12809)
Test: primary screen, population patch clamp on CHO cells stably expressing hERG
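Note: peak tail current of the secondary pulse compared with the same well before compound.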

human ether-à-go-go-related gene (hERG) potassium channel, sequence (Q12809 whole entry, looked up): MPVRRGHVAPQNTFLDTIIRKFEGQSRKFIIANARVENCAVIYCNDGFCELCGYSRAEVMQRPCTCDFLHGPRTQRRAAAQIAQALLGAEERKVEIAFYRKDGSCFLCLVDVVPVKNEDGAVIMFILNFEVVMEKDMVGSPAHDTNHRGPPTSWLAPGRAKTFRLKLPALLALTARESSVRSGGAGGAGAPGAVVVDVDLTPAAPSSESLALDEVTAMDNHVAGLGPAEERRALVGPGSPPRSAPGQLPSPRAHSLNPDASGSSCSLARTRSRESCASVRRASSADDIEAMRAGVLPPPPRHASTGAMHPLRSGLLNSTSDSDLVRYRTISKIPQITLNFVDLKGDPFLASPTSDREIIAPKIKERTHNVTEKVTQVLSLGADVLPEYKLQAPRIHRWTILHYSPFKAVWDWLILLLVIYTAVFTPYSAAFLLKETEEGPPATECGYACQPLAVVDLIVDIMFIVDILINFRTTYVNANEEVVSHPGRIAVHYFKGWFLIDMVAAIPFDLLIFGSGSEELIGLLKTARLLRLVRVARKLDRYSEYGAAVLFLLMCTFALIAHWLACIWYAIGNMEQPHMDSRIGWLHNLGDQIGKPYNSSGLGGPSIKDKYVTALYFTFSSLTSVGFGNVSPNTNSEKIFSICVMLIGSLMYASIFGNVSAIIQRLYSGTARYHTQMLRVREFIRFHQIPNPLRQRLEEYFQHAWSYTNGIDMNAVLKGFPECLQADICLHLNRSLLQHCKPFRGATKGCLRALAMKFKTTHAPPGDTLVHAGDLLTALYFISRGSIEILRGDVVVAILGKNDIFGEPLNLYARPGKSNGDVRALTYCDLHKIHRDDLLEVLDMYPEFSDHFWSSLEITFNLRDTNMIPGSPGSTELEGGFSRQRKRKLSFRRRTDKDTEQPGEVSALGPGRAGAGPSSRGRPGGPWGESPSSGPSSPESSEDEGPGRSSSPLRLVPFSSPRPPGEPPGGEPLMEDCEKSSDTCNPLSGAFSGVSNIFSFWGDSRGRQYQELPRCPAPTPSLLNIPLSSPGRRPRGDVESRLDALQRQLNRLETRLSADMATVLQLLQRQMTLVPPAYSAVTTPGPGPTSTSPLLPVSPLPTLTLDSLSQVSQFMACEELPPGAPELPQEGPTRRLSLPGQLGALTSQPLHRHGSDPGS

Point of comparison: CCOc1ccc(NC(=O)N(CCN2CCOCC2)Cc2ccc3c(c2)CCCN3CC)cc1, “hERG current change (%, negative = inhibition) at 10uM” value -7.62%. Against it:
- CC1(C)CC(=O)N(CC(=O)O)c2ccccc2S1(=O)=O — higher, 3.52%
- COc1ccc(CN2CCN(Cc3cn(C)nc3-c3ccccc3)CC2CCO)c(C)c1C (stereo not drawn) — lower, -72.4%
- Cc1coc2c1c(C)cc1oc(=O)c(Cc3ccccc3)c(C)c12 — higher, 17.5%
- COc1ccc(NC(=O)c2ccco2)cn1 — higher, 18.8%
- Cc1cc(NC(=O)c2ccc(C)c(C)c2)no1 — higher, 11.8%
- CC1=C(C(=O)OCc2ccccc2)C(c2ccccc2)NC(=O)N1CCCCCC(=O)O (stereo not drawn) — lower, -13.7%
- Cc1ccc(N2CCN(C(=O)Nc3cccc([N+](=O)[O-])c3)CC2C)cc1 (stereo not drawn) — lower, -78.3%
- CCc1nnc(SCC(=O)Nc2nccs2)n1CC — higher, 18%
- c1ccc(Sc2ncnc3c2oc2ccccc23)cc1 — higher, 14.5%
- O=S(=O)(NCCc1ccccc1)c1ccc(F)cc1 — higher, 4.55%
- CCn1c(-c2ccccc2Cl)nn(CC(=O)Nc2ccccc2C)c1=S — higher, 0.806%
- CCS(=O)(=O)C(=C(Nc1ccc(OC)cc1)Nc1ccc(OC)cc1)S(=O)(=O)CC — higher, -5.64%
- Cc1oc(-c2ccccc2F)nc1CS(=O)(=O)CC(=O)N1CCc2ccccc21 — higher, 12.4%
- CCOC(=O)c1ccccc1N/C=C1\CCCC1=O — lower, -22.8%
- COc1ccc(-c2csc3ncnc(N4CCN(S(=O)(=O)c5ccc(C(C)=O)cc5)CC4)c23)cc1 — lower, -17%
- CC(C)c1ccc2c(c1)CCC1C(C)(CN)CCCC21C.O=C(O)c1ccccc1 (stereo not drawn) — higher, 4.7%
- CCOc1ccc(C(=O)CCC(=O)Nc2ccc(C)cn2)cc1 — lower, -22.2%
- OCCC1CN(Cc2ccc3cc(Cl)ccc3n2)CCN1Cc1ccsc1 (stereo not drawn) — lower, -65%
- NC(=O)C1CC(=O)N(c2ccc(OCc3c(Cl)cccc3Cl)cc2)C1 (stereo not drawn) — higher, 15.9%
- COc1cc(C(=O)NCCOc2cccc3cccnc23)cc(OC)c1OC — higher, -5.99%
- Oc1ccccc1C1=Nc2ccccc2N=C(c2cccs2)C1 — higher, 23.6%
- Cn1cnc(S(=O)(=O)N2CCN(c3cccc(Cl)c3)CC2)c1 — higher, 9.76%
- C=CCn1c(CNC(=O)c2ccccc2F)nnc1SCc1nc2ccccc2c(=O)[nH]1 — higher, -1.68%
- O=C(CN1CCCN(S(=O)(=O)c2ccc(F)cc2)CC1)Nc1cccc(F)c1 — lower, -50.3%
- COc1cc(-c2nnc(CSc3nnc(N)s3)o2)cc(OC)c1OC — higher, -2.43%
- Cc1nn(Cc2ccc(F)cc2)c(C)c1NC(=O)c1noc2c1CCc1ccccc1-2 — lower, -10%
- COc1ccc(C)c(-n2c(=O)n(Cc3ccccc3)c(=O)c3[nH]cnc32)c1 — higher, 8.32%
- CCC(=O)Nc1ccc(C(=O)CSc2nnc(CNc3ccc(Cl)cc3)o2)cc1OC — higher, 12.5%
- O=C(NC1CCCC1)C(c1ccncc1)N(C(=O)c1ccco1)c1ccc(Cl)cc1 (stereo not drawn) — higher, -4.59%
- Cc1ccc(Oc2ccc(-c3nc(N)nc(N)n3)cc2)cc1 — higher, 31.6%
- CC(Sc1nnc(C(C)N(C)C)n1-c1ccc(Cl)cc1)C(=O)Nc1ccc2c(c1)OCO2 (stereo not drawn) — higher, -2.55%
- CC1CC(C)CN(C(=O)COC(=O)c2cccc([N+](=O)[O-])c2)C1 (stereo not drawn) — higher, -1.37%
- COc1ccc(/C=N/NC(=O)c2cccnc2)cc1COc1ccc([N+](=O)[O-])cc1 — lower, -28.5%
- Cc1cccc(C)c1NC(=O)CSc1nnc(-c2ccccc2)n1Cc1ccc2c(c1)OCO2 — lower, -24%
- CCOC(=O)c1cnc(-c2ccccc2)[nH]c1=O — higher, 15.6%
- O=C(CN1CCCCC1)Nc1cc(S(=O)(=O)N2CCOCC2)ccc1N1CCCC1 — higher, 6.08%
- Cc1nn(-c2ccccc2)c(Cl)c1/C=N\NC(=O)c1cncc(Br)c1 — lower, -21.1%
- COc1ccc(NC(=O)/C(Cl)=C(/Cl)S(=O)Cc2ccc(C)cc2)cn1 (stereo not drawn) — lower, -9.86%
- Oc1ccc(Oc2ccc(Oc3ccc(O)cc3)cc2)cc1 — higher, 14.2%
- O=C(CSc1nnc(CNC(=O)c2ccco2)o1)Nc1ccccc1C(F)(F)F — higher, 20.8%
- CC(Nc1c([N+](=O)[O-])c(=O)oc2ccccc12)C(Cl)c1ccccc1 (stereo not drawn) — higher, 4.25%
- N#CCCN(C(=O)CCl)c1cccc(Cl)c1 — higher, 6.52%
- Cc1csc(NC(=O)CSc2nccn2C)n1 — higher, 7.95%
- O=C(NCc1ccco1)c1ccccc1NS(=O)(=O)c1cccs1 — higher, 3.9%
- COc1ccc(NC(=O)c2sc3ncn(CC(=O)N4CCN(c5ccccn5)CC4)c(=O)c3c2C)c(OC)c1 — higher, 19.5%
- CC(C)CN=C(NS(=O)(=O)c1ccccc1)C(Cl)(Cl)Cl — higher, 2.84%
- CN(CCC1CCOCC1)C(=O)CC1C(=O)NCCN1Cc1cccc(F)c1 (stereo not drawn) — higher, 17.7%
- O=C(NCc1nc2ccccc2[nH]1)C1=C[C@H](C2CC2)C[C@H](OCCCCO)O1 — lower, -9.4%
- Cc1cc(C)c(S(=O)(=O)N2CCN(c3ccc([N+](=O)[O-])c(NCC4CCCO4)c3)CC2)c(C)c1 (stereo not drawn) — higher, 18.9%
- COc1ccc(Sc2nc3ccccc3n3c(C(F)(F)F)nnc23)cc1 — higher, 7.55%
- CC(C)(C)NCCOc1ccc(Br)cc1.Cl — lower, -20.4%
- CCn1c(SCC(=O)c2cccs2)nnc1-c1ccco1 — higher, -2.68%
- COc1ccc(OC)c(NC(=O)c2cc3ccccc3cc2OC)c1 — higher, 2.44%
- COc1ccc(OCCSc2nc(N)cc(=O)[nH]2)cc1 — higher, -1.77%
- CCN(CC)CCC(=O)N1c2ccccc2CCc2ccc(NC(=O)OC(C)C)cc21 — lower, -40.6%
- O=C(Nc1ccc(Cl)cc1)c1sccc1-n1cccc1 — lower, -8.31%
- Cn1c(CNC(=O)c2ccccc2F)nnc1SCC(=O)Nc1nncs1 — higher, 11.9%
- c1ccc(-c2cc(CSc3nc4ccccc4[nH]3)on2)cc1 — higher, 12.4%
- CC1(C)CC(=O)C=C(NCCN2CCN(C(=S)Nc3ccc(F)cc3)CC2)C1 — higher, 6.5%
- COc1ccc(NC(=O)c2cc(-c3ccc(C)o3)nc3ccccc23)cc1 — higher, 21.9%
- Oc1ccc(CNCC2COc3ccccc3O2)cc1 (stereo not drawn) — higher, 4.89%
- CCCCn1c(SCC(=O)N2CCCC2=O)nc2cc(S(N)(=O)=O)ccc21 — lower, -34%
- CCCCCc1nc2c(c(=O)c3ccccc3n2C)c(=O)n1Cc1ccc(OC)cc1 — higher, -5.2%
- CCCCn1c(CN2CCN(c3cccc(Cl)c3)CC2)nc2c1c(=O)n(C)c(=O)n2C — lower, -56.3%
- COc1ccc2cc(CCOC3CCCCO3)ncc2c1 (stereo not drawn) — lower, -9.87%
- Cc1ccccc1NC(=O)c1ccco1 — higher, 15%
- Nn1c(Cc2cccc3ccccc23)nnc1SCc1c(Cl)cccc1Cl — higher, -1.8%
- N#CCC(=O)NCCCOC(=O)Nc1ccc(Cl)c(Cl)c1 — higher, -5.37%
- CC(C)c1nc2sc3c(c2c(=O)n1N)CC(C)(C)OC3 — higher, 8.71%
- COc1ccc(NC(=S)N2CCc3ccccc32)cc1OC — higher, 27.9%
- CCOC(=O)C1CCN(S(=O)(=O)c2ccc3c(c2)CC(C)N3C(=O)C2CC2)CC1 (stereo not drawn) — higher, 2.69%
- CC(C)OC(=O)/C(=C\c1ccc2c(c1)c1ccccc1n2C)NC(=O)c1ccccc1 — higher, 8.01%
- O=C(c1ccc(Cl)c(Cl)c1)N1CCC(=O)N(C(CO)Cc2ccccc2)CC1 (stereo not drawn) — higher, 5.42%
- Cc1nnc(NC(=O)c2cc3ccccc3o2)s1 — higher, -4.96%
- Clc1ccc2c(NCc3ccccn3)ccnc2c1 — lower, -39.7%
- Cc1cc(S(=O)(=O)n2[nH]c(=O)c(CCO)c2C)c(Cl)cc1Cl — higher, 8.77%
- CC1=CC(C)(C)[N+](C)=CN1c1ccccc1.[I-] — higher, -7.2%
- O=C(Nc1ccc(N2CCOCC2)c(Cl)c1)c1ccc(-n2cnnc2)cc1Cl — lower, -16.9%
- Cc1cc(N2CCOCC2)n2ncc(-c3ccc(Cl)cc3)c2n1 — higher, 10.1%
- Cc1ccc(NC(=O)C[n+]2cc(-c3ccccc3)n3c2CCC3)c(C)c1.[Cl-] — lower, -9.62%
- Cc1cc(C)nc(SCC(=O)N/N=C/c2cccn2-c2cccc(C(F)(F)F)c2)n1 — lower, -24.1%
- CC(=O)Nc1ccc(S(=O)(=O)NCCC(=O)N2CCC(Cc3ccccc3)CC2)cc1 — lower, -26.9%
- N#Cc1ccc(-c2nc3ccc(Br)cc3c(=O)n2O)cc1 — higher, 18.3%
- CC(C)Cc1c(O)nc(SCC(=O)Nc2ccc3c(c2)CCC3)[nH]c1=O — higher, 0.715%
- CCC(=O)N1c2ccc(S(=O)(=O)NCCc3ccc(OC)c(OC)c3)cc2CC1C (stereo not drawn) — higher, 10.3%
- C[C@@]12C(=O)N(c3ccc(C(F)(F)F)cc3)C(=O)N1[C@@H]1c3ccccc3OC[C@@H]1[C@H]2c1ccccc1 — higher, 20%
